Substitutions are numbered along the chain they refer to; changes in the protein carry UniProt numbers. The list shows a part of the results.
T1: RBFOX1 RRM RbFoxmut (Fox-RRM*) (Homo sapiens, UniProt Q9NWB1 109-208, R118D;E147R;N151S;E152T)
T1 sequence: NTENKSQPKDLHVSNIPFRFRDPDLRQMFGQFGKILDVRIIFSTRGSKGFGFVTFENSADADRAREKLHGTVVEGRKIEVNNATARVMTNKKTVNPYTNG

B1: AGCGCCC (DNA:RNA)
RNA: GGGAGACCGGAAUUCAGAUUGUCCAGCGCCCUUAAAUCCCGUCGUAGCCACCA
DNA 1: CAATCTGAATTCCGGTCTCCC
DNA 2: TGGTGGCTACGACGGGATT
B2: UGGAGCA (DNA:RNA)
RNA: B1 RNA with A25U, C27G, G28A, C29G, C31A
DNA 1: CAATCTGAATTCCGGTCTCCC
DNA 2: TGGTGGCTACGACGGGATT
B3: UGCUCAU (DNA:RNA)
RNA: B1 RNA with A25U, G28U, C30A, C31U
DNA 1: CAATCTGAATTCCGGTCTCCC
DNA 2: TGGTGGCTACGACGGGATT
B4: CUAGCGU (DNA:RNA)
RNA: B1 RNA with A25C, G26U, C27A, C30G, C31U
DNA 1: CAATCTGAATTCCGGTCTCCC
DNA 2: TGGTGGCTACGACGGGATT
B5: UAUAGCC (DNA:RNA)
RNA: B1 RNA with A25U, G26A, C27U, G28A, C29G
DNA 1: CAATCTGAATTCCGGTCTCCC
DNA 2: TGGTGGCTACGACGGGATT
B6: UGUCCCU (DNA:RNA)
RNA: B1 RNA with A25U, C27U, G28C, C31U
DNA 1: CAATCTGAATTCCGGTCTCCC
DNA 2: TGGTGGCTACGACGGGATT
B7: UGGUCGU (DNA:RNA)
RNA: B1 RNA with A25U, C27G, G28U, C30G, C31U
DNA 1: CAATCTGAATTCCGGTCTCCC
DNA 2: TGGTGGCTACGACGGGATT
B8: CUGGAUU (DNA:RNA)
RNA: B1 RNA with A25C, G26U, C27G, C29A, C30U, C31U
DNA 1: CAATCTGAATTCCGGTCTCCC
DNA 2: TGGTGGCTACGACGGGATT
B9: UGGGUUA (DNA:RNA)
RNA: B1 RNA with A25U, C27G, C29U, C30U, C31A
DNA 1: CAATCTGAATTCCGGTCTCCC
DNA 2: TGGTGGCTACGACGGGATT

Target: T1, RBFOX1 RRM RbFoxmut (Fox-RRM*)
Experiment: EMSA; HiTS-Eq, 1 nM pool, 10 min; buffer printed only for the single-RNA assays: 10 mM Tris pH 7.5, 150 mM NaCl, 3.4 mM EDTA, 0.001% NP-40, 30 C
Conditions: tags: His6 N-terminal (pET28a); label: 5' 32P
How it was run: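 A pool of RNA with 7 randomized nucleotides, 5′-radiolabelled and with DNA-annealed flanks, was equilibrated at 1 nM for 10 min in 50 µL with purified RbFox RRM, wild type or mutant, across increasing protein concentrations. Free RNA was separated by 8% native PAGE, excised, reverse-transcribed, barcoded by PCR and sequenced. Relative association constants were obtained from read-count changes of each RNA species versus the control reaction and normalised to the cognate motif.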

| Binder | binding signal |
| --- | --- |
| B1 | 0.0626 KA relative to UGCAUGU |
| B2 | 0.171 KA relative to UGCAUGU |
| B3 | 0.121 KA relative to UGCAUGU |
| B4 | 0.0865 KA relative to UGCAUGU |
| B5 | 0.146 KA relative to UGCAUGU |
| B6 | 0.0632 KA relative to UGCAUGU |
| B7 | 0.199 KA relative to UGCAUGU |
| B8 | 0.0715 KA relative to UGCAUGU |
| B9 | 0.173 KA relative to UGCAUGU |

From PMC9911399, “Two distinct binding modes provide the RNA-binding protein RbFox with extraordinary sequence specificity”
